Results: PubChem BioAssay AID504845 (National Center for Advancing Translational Sciences (NCATS), 2011)
About 150 (0.038%) of roughly 390,000 compounds were called active. The inconclusive results got no clear call from the source; some entries with a clear call stand among them for comparison. The call rests on the fitted dose curve; in most records, active means well fitted inhibition curve with a large enough effect; inconclusive means small, poorly fitted or top-dose-only effect; inactive means no such curve, though single readings can be large or run the other way. Potencies of inconclusive entries are doubtful fits and often do not repeat.
Further: nearly all actives have a fitted effect of over 75% in size.
On the % scale 0 is the no-effect control and ±100 the full control effect; potency means the concentration at half of the fitted maximal effect; tags describe the fitted curve by direction and shape.

What follows are molecules tested against Regulator of G-protein signaling 4 (Homo sapiens) (UniProt P49798) (assay: Inhibitors of Regulator of G Protein Signaling (RGS) 4: qHTS). Settings: Transcreener GDP fluorescence polarization, RGS4-accelerated GTP hydrolysis; series mostly up to 114 µM.
UniProt P49798, sequence (P49798 whole entry, looked up): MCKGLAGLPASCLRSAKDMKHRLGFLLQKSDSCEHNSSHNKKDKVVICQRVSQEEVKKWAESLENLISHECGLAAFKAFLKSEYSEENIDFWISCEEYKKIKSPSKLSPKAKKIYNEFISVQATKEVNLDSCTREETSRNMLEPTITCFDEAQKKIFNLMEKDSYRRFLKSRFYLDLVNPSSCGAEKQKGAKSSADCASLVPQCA
Procedure, shortened: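 MLSMR compounds (23 nl, pin-transferred) preincubated 10 min at room temperature with a 500nM (2x) first reagent, then RGS4 at 900nM (2x) plus Transcreener GDP mix added; fluorescence polarization (620/688 nm) read before and after 90 min at 30 °C.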
`Oc1c(Cl)cc(Cl)cc1C1=NNC(c2ccc(Cl)cc2)C1` (centres undefined) was tested, and the Potency was “inactive”.
With `N#Cc1c(Nc2ccccc2Cl)s[nH]c1=O` the Potency was inconclusive: 44.7 µM [inhibitor, partial curve, poor fit].
`O=C(Nc1ccc2c(c1)OCCO2)c1cc(-c2ccccc2)nc2ccccc12` was tested, and the Potency was “inactive”.
With `Cc1ccc(NC(=O)c2cc3c(s2)CCCC3)cc1` the Potency was “inactive”.
With `Cc1ccc(C)c(S(=O)(=O)N2C(=S)NC(=O)C2C(C)C)c1` (centres undefined) the Potency was inconclusive: 50.1 µM [inhibitor, partial curve, poor fit].
With `Cc1cc(C)c2nc(-c3ccccn3)cc(C(=O)NCCc3ccc(S(N)(=O)=O)cc3)c2c1` the Potency was inconclusive: 79.4 µM [inhibitor, single point].
`CCOC(=O)C1=C(C)c2ccccc2N(C(=O)OC)C1(C)C(=O)OCC` (centres undefined) was tested, and the Potency was inconclusive: 79.4 µM [inhibitor, partial curve, poor fit].
`CCOc1cnc(-c2c(-c3ccccc3Cl)noc2C)o1` was tested, and the Potency was inconclusive: 89.1 µM [inhibitor, partial curve, poor fit].
With `C#CCOc1nc(C)cc(C)c1S(=O)(=O)c1ccccc1C` the Potency was “inactive”.
For `O=C(NCc1ccc(F)cc1)C1CCC(CNS(=O)(=O)c2ccccc2)CC1` (centres undefined), the Potency was inconclusive: 50.1 µM [inhibitor, partial curve, poor fit].
For `COc1ccc(S(=O)(=O)N2CCN(c3ccc(C)cc3C)CC2)cc1OC`, the Potency was inconclusive: 70.8 µM [inhibitor, single point].
For `N#Cc1c(-c2ccco2)c2c([nH]c1=S)CCCC2`, the Potency was inconclusive: 56.2 µM [inhibitor, partial curve, poor fit].
`Cc1ccc(S(=O)(=O)NCc2ccc(C(=O)N(C)CCC#N)cc2)cc1` was tested, and the Potency was “inactive”.
`O=C(CC12CC3CC(CC(C3)C1)C2)NCc1ccc(F)cc1` was tested, and the Potency was inconclusive: 79.4 µM [inhibitor, single point].
With `CN1CCN(NC(=O)CN2C(=O)/C(=C/c3c(Cl)cccc3Cl)SC2=S)CC1` the Potency was inconclusive: 79.4 µM [inhibitor, partial curve, poor fit].
`CC1=NNC(=O)/C1=C\c1cn(-c2ccccc2)nc1-c1ccc(F)cc1` was tested, and the Potency was inconclusive: 17.8 µM [inhibitor, full curve, poor fit].
`CCOc1ccccc1-n1c(=S)sc2c(=O)n(-c3ccc(C)cc3)c(=S)[nH]c21` was tested, and the Potency was inconclusive: 89.1 µM [inhibitor, partial curve, poor fit].
With `Cc1ccc2c(=O)cc(C(=O)Nc3nc4ccc(Cl)cc4s3)oc2c1C` the Potency was inconclusive: 100 µM [inhibitor, partial curve, poor fit].
With `N#CCC(=O)Nc1ccc(C(=O)OCC(=O)c2ccc3c(c2)OCCO3)cc1` the Potency was inconclusive: 31.6 µM [inhibitor, full curve, poor fit].
`CC(C)CCNC(=O)c1onc(CSc2ccccn2)c1C(=O)NCCC(C)C` was tested, and the Potency was inconclusive: 50.1 µM [inhibitor, partial curve, poor fit].
`Cc1ccc(-c2cc(C(=O)NCc3ccco3)c3ccccc3n2)o1` was tested, and the Potency was inconclusive: 50.1 µM [inhibitor, partial curve, poor fit].
For `N#Cc1ccc(-c2ccc(OCC(=O)NCC(=O)Nc3ccc(F)c(F)c3F)cc2)cc1`, the Potency was inconclusive: 17.8 µM [inhibitor, full curve, poor fit].
In the case of `CCOC(=O)c1c(C)[nH]c(C2=NNC(=NC3CC3)SC2)c1C`, the Potency is reported as inconclusive: 17.8 µM [inhibitor, full curve, poor fit].
In the case of `COC(=O)c1cc(NC(=O)c2cccs2)ccc1N1CCOCC1`, the Potency is reported as inconclusive: 79.4 µM [inhibitor, single point].
With `Cc1cc2nc(-c3ccc(SCC(=O)N4CCN(C(=O)c5ccco5)CC4)nc3)[nH]c2cc1C` the Potency was inconclusive: 17.8 µM [inhibitor, full curve, poor fit].
For `CCSc1nnc(NC(=O)CSc2nc3c(c(=O)n2CC)SC(C)C3)s1` (centres undefined), the Potency was “inactive”.
`O=C(O)CSc1c[nH]c2ccccc12` was tested, and the Potency was “inactive”.
`CC1(C)C2CCC(C2)C1C/C=N/NC(N)=S` (centres undefined) was tested, and the Potency was inconclusive: 112 µM [inhibitor, partial curve, poor fit].
In the case of `COc1ccc(NC(=O)/C(Cl)=C(/Cl)S(=O)(=O)Cc2ccccc2)cn1`, the Potency is reported as inconclusive: 44.7 µM [inhibitor, partial curve, poor fit].
For `N#CC1=C(N)C2=CCCC[C@H]2[C@H](c2cccc(F)c2)C1(C#N)C#N`, the Potency was inconclusive: 89.1 µM [inhibitor, partial curve, poor fit].
For `NC1=C(Br)C(=O)c2ncccc2C1=O`, the Potency was inconclusive: 50.1 µM [inhibitor, partial curve, poor fit].
`CCNc1ccc(Br)cc(C(=O)/C=C/c2ccccc2Cl)c1=O` was tested, and the Potency was inconclusive: 56.2 µM [inhibitor, partial curve, poor fit].
For `O=[N+]([O-])c1ccc(C(O)C[n+]2ccccc2)cc1` (centres undefined), the Potency was “inactive”.
For `CCOC(=O)N1CCc2c(sc(NCc3sccc3C)c2C(=O)Nc2ccc(OC)cc2OC)C1`, the Potency was inconclusive: 50.1 µM [inhibitor, partial curve, poor fit].
In the case of `C/C=C/Cn1c(SCc2ccc(C)cc2)nc2c1c(=O)[nH]c(=O)n2C`, the Potency is reported as inconclusive: 31.6 µM [inhibitor, partial curve, poor fit].
`CC(C(=O)NCCCc1ccccc1)n1cccc1C(=O)c1ccccc1` (centres undefined) was tested, and the Potency was “inactive”.
For `CCNC(=O)c1cccc(NC(=O)C2CC(=O)N(CCc3ccccc3)C2)c1` (centres undefined), the Potency was inconclusive: 89.1 µM [inhibitor, single point].
In the case of `COc1ccc([C@H]2CC(=O)C=C(c3ccc(SC)cc3)C2)cc1`, the Potency is reported as “inactive”.
In the case of `O=C(Nc1ccc2nc(SCC(=O)N3CCOCC3)sc2c1)c1cccc(Cl)c1`, the Potency is reported as inconclusive: 89.1 µM [inhibitor, single point].
With `O=C(O)/C=C/C(=O)Nc1ccc(N2CCOCC2)nc1N1CCOCC1` the Potency was inconclusive: 50.1 µM [inhibitor, partial curve, poor fit].
`Cc1ccccc1NC(=S)NNc1ncc(C(F)(F)F)cc1Cl` was tested, and the Potency was inconclusive: 89.1 µM [inhibitor, single point].
`C#CC(=O)CC1(CN(Cc2ccccc2)C(=O)OC(C)(C)C)CCCCC1` was tested, and the Potency was inconclusive: 11.2 µM [inhibitor, full curve, poor fit].
`COc1ccc(N2CC(NC(=O)/C=C\c3ccccc3)CC2=O)cc1` (centres undefined) was tested, and the Potency was “inactive”.
With `CN(C)S(=O)(=O)c1ccc(C(=O)Nc2nnc(-c3cccs3)o2)cc1` the Potency was inconclusive: 50.1 µM [inhibitor, partial curve, poor fit].
`O=C(NCc1ccc2c(c1)OCO2)c1ccc(COc2cc(Cl)ccc2Cl)o1` was tested, and the Potency was inconclusive: 89.1 µM [inhibitor, single point].
In the case of `Cc1ccc2c(c1)[nH]c1c(=O)n(CCCN3CCOCC3)cnc12`, the Potency is reported as “inactive”.
With `CCC(C)NC(=O)c1ccc2nc(-c3ccco3)c(-c3ccco3)nc2c1` (centres undefined) the Potency was inconclusive: 20 µM [inhibitor, full curve, poor fit].
For `O=[N+]([O-])c1cccc(C(O)C23CN4CN(CN(C4)C2)C3)c1` (centres undefined), the Potency was “inactive”.
In the case of `O=[N+]([O-])c1ccccc1NCc1c(O)ccc2ccccc12`, the Potency is reported as inconclusive: 56.2 µM [inhibitor, partial curve, poor fit].
With `CCOc1ccc(C(=S)NC2CCCCC2)cc1OCC` the Potency was inconclusive: 56.2 µM [inhibitor, partial curve, poor fit].
For `CCN1CCOC(=O)C1CC(=O)Nc1cc(C)ccc1OC` (centres undefined), the Potency was “inactive”.
`Fc1ccc(Sc2cc(Cl)c(-c3ccccc3)nn2)cc1` was tested, and the Potency was inconclusive: 89.1 µM [inhibitor, single point].
For `COc1ccc(NC(=O)C(CC(C)C)NC(=O)c2ccccc2C)cn1` (centres undefined), the Potency was inconclusive: 79.4 µM [inhibitor, partial curve, poor fit].
For `CC1=C(C)CS(=O)N(c2ccc(S(N)(=O)=O)cc2)C1` (centres undefined), the Potency was inconclusive: 100 µM [inhibitor, partial curve, poor fit].
With `C1=C(c2ccc(-c3ccccc3)cc2)Nc2ncnn2C1c1ccco1` (centres undefined) the Potency was inconclusive: 44.7 µM [inhibitor, partial curve, poor fit].
With `Cc1ccc(C)c(NC(=O)CC2NCCNC2=O)c1` (centres undefined) the Potency was “inactive”.
With `O=C(NCc1ccc(Cl)cc1)c1ccc2c(=O)n(CC3CCCO3)c(=S)[nH]c2c1` (centres undefined) the Potency was inconclusive: 70.8 µM [inhibitor, partial curve, poor fit].
For `CCOC(=O)c1[nH]c(COC(=O)C2CC(=O)N(Cc3ccccc3)C2)c(C(=O)OCC)c1C` (centres undefined), the activity change, negative = inhibition was inactive: -4.97% [at 11.4 µM].
In the case of `Cc1nc(/C(N)=N/OC(=O)c2ccccc2Cl)c(C(F)(F)F)o1`, the Potency is reported as “inactive”.
For `Cc1nc(-c2cccc(NC(=O)Nc3ccc([N+](=O)[O-])cc3)c2)no1`, the Potency was inconclusive: 89.1 µM [inhibitor, single point].
`O=C(O)c1cccnc1SCc1cn2cc(Br)ccc2n1` was tested, and the Potency was inconclusive: 44.7 µM [inhibitor, partial curve, poor fit].
For `C=CCc1ccc(OCCN2CCc3ccccc3C2)c(OC)c1`, the Potency was inconclusive: 89.1 µM [inhibitor, partial curve, poor fit].
`CCC(C(=O)NC1C(=O)N2C(C(=O)O)=C(CSc3nnc(C)s3)CSC12)c1ccccc1` (centres undefined) was tested, and the Potency was inconclusive: 50.1 µM [inhibitor, partial curve, poor fit].
For `COC(=O)c1ccc2c(=O)n(CCCCCC(=O)N3CCN(c4ccccc4)CC3)c(=O)[nH]c2c1`, the Potency was inconclusive: 50.1 µM [inhibitor, partial curve, poor fit].
